# Experimental data as given in PubChem BioAssay AID651820 (National Center for Advancing Translational Sciences (NCATS), 2012).
# Out of some 340,000 compounds screened, about 12,000 (3.5%) were called active. This list was built around the results that the source calls inconclusive (neither active nor inactive); the mix of calls is not that of the screen. Calls follow the shape of the dose curve; as a rule, active = well fitted inhibition curve with a large enough effect; inconclusive = small, poorly fitted or top-dose-only effect, or another doubt; inactive = no such curve, though single readings can be large or run the other way. Potencies of inconclusive entries are left out as doubtful fits.
# Test: qHTS Assay for Inhibitors of Hepatitis C Virus (HCV)
# Settings: Huh7.5.1 HCVcc-Cre (HCVcc is cell-culture hepatitis C virus) infection, luciferase reporter, 44 h; series mostly up to 41.8 µM
# In short: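 Antiviral activity was scored by luciferase reporter output from cells infected with HCVcc-Cre (~0.5 moi) in presence of compound, 44 h infection period, cells seeded 1,000/well 4 h prior.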
# Potency is read from the fitted curve at half-maximal effect; tags tell the direction and shape of the fitted curve.
row,SMILES,Potency
1,CS(=O)(=O)N(CC(=O)Nc1ccccc1Sc1ccccc1)c1ccc(F)cc1,"inconclusive [inhibitor, single point]"
2,COc1ccc(/C=C2\SC(=S)N(CCCC(=O)Nc3ccccn3)C2=O)cc1OC,"inconclusive [inhibitor, single point]"
3,CC1=NN(/C(=N\c2nnc(C)s2)Nc2ccccc2)[C@H](c2cccc3ccccc23)S1,"inconclusive [inhibitor, partial curve]"
4,O=C(NCCCSc1ccccc1)c1cc(Cl)ccc1O,"inconclusive [inhibitor, single point]"
5,CC(=O)c1ccc(NS(=O)(=O)c2ccc(C)cc2)cc1,inactive
6,O=C(O)C1CC(=O)N(CCc2c[nH]c3ccccc23)C1 (configuration not stated),inactive
7,COc1ccc(Cl)cc1NC(=O)c1oc(C)nc1C,"inconclusive [inhibitor, full curve]"
8,CCOc1ccc(N2CC(C(=O)Nc3ccc(OC)c(S(=O)(=O)N4CCCCC4)c3)CC2=O)cc1 (configuration not stated),"inconclusive [inhibitor, single point]"
9,COc1ccc(Cl)cc1NC(=S)NCCc1c[nH]c2ccccc12,"inconclusive [inhibitor, partial curve]"
10,O=C(Nc1ccc(O)cc1)c1ccccc1OCc1ccccc1,active: 14.1 µM
11,O=S(=O)(c1ccc2c(c1)CCCN2)N1CCCC2CCCCC21 (configuration not stated),"inconclusive [inhibitor, single point]"
12,Cc1ccc(NC(=O)CSCC(=O)NCCc2ccccc2)c(C)c1,inactive
13,O=C(O)c1ccc(N/N=C/c2ccc(OC(=O)c3ccccc3Cl)cc2)cc1,inactive
14,O=C(/C=C/c1ccco1)Nc1ccccc1N1CCCCC1,"inconclusive [inhibitor, single point]"
15,CC(C)n1c(/C=C/c2ccccc2)nc2ccccc21,"inconclusive [inhibitor, single point]"
16,COc1ccc(-c2csc(N(CCCN(C)C)C(=O)c3ccc(C)cc3)n2)cc1,active: 25.1 µM
17,O=C(Nc1nc(NC(=O)c2ccco2)n(-c2ccccc2)n1)c1ccccc1,"inconclusive [inhibitor, full curve, poor fit]"
18,Cn1cnnc1Sc1cc(N2CCN(S(=O)(=O)c3ccc4ccccc4c3)CC2)ccc1[N+](=O)[O-],"inconclusive [inhibitor, partial curve]"
19,CCCC1(CCC)C(=O)NC(=NCc2ccccc2)NC1=O,"inconclusive [inhibitor, partial curve]"
20,O=C(Cn1ncc(Cl)c(Cl)c1=O)N1CCOCC1,"inconclusive [inhibitor, partial curve]"
21,Cc1ccc(C(C(=O)NC2CCCCC2)N2CCOCC2)cc1 (configuration not stated),inactive
22,C/C=C/C=C/C(=O)N1CC[C@]23c4ccccc4N[C@H]4N(C)c5cccc6c5[C@]42CCN([C@H]6C2OC2(C)C)[C@H]13 (some centres not stated),"inconclusive [inhibitor, single point]"
23,O=C(CN1CCN(C(=O)CCC(=O)N2CCC(c3ccccc3)=N2)CC1)Nc1ccc(F)cc1,inactive
24,O=C(CSc1ccccc1Cl)N1CCC(c2nc3ccccc3s2)CC1,"inconclusive [inhibitor, single point]"

row,SMILES,Potency
1,CCCC(=O)Nc1ccc2nn(-c3ccc(OC)cc3)nc2c1,"inconclusive [inhibitor, single point]"
2,Cc1cc(C(=O)CSc2nncs2)c(C)n1-c1c(C)n(C)n(-c2ccccc2)c1=O,inactive
3,COc1cc(Cl)c(C)cc1NC(=O)COC(=O)C1=COCCO1,"inconclusive [inhibitor, partial curve, poor fit]"
4,Clc1ccc(C[n+]2csc3ccccc32)cc1,"inconclusive [inhibitor, single point]"
5,CCCCc1nc2cc(C(=O)N3CCCC3)ccc2o1,inactive
6,CCOc1ccc(CCNC(=O)c2cc3c(s2)CS(=O)(=O)C3)cc1OCC,"inconclusive [inhibitor, partial curve]"
7,O=C(Nc1cnc2ccccc2c1)N1CCOCC1,inactive
8,Cc1nc2ccc(NC(=O)c3ccc(Cl)c([N+](=O)[O-])c3)cc2s1,inactive
9,COC(=O)c1ccc(NC(=O)CN2CCN(S(=O)(=O)c3cc(Cl)ccc3OC)CC2)cc1,"inconclusive [inhibitor, single point]"
10,Cc1ccc(NC(=O)CN2CCc3cc4c(cc3C2C)OCCCO4)cc1 (configuration not stated),"inconclusive [inhibitor, single point]"
11,NC1=NC(c2cn(-c3ccccc3)nc2-c2cccs2)n2c(nc3ccccc32)N1 (configuration not stated),inactive
12,CC(=O)C1C(=O)c2c(cccc2[N+](=O)[O-])C1=Nc1cccc(Cl)c1 (configuration not stated),"inconclusive [inhibitor, partial curve]"
13,Cc1c(CCC(=O)N[C@@H](CCCNC(N)=O)C(=O)O)c(=O)oc2cc3oc4c(c3cc12)CCCC4,inactive
14,Cn1c2ccccc2n2c(=O)cc(-c3ccccc3)c(C#N)c12,"inconclusive [inhibitor, partial curve]"
15,C/C(=N/NC(=O)c1ccc(C)s1)c1cccc(NC(=O)c2ccoc2C)c1,active: 11.2 µM
16,O=C(Nc1c(F)cc(F)cc1Br)c1cc(-c2ccccc2)on1,"inconclusive [inhibitor, single point]"
17,O=C(Nc1ccc(Cl)cn1)c1ccccc1[N+](=O)[O-],inactive
18,CCN(CC(=O)Nc1ccc2c(c1)OCCO2)C(=O)/C=C/c1cccc(OC)c1OC,"inconclusive [inhibitor, partial curve]"
19,CC[C@]1(c2ccccc2C)ON(c2ccccc2C(F)(F)F)C1=O,inactive
20,COc1ccc(S(=O)(=O)NCc2ccccn2)cc1NC(=O)c1ccc(C)cc1,"inconclusive [inhibitor, partial curve]"
21,O=C(Nc1ccc(Oc2c(F)c(F)c(F)c(F)c2F)cc1)OC1CCN2Cc3ccccc3N=C12 (configuration not stated),active: 3.16 µM
22,Cc1nn(CCc2nn[nH]n2)c2nc(-c3ccc(Br)cc3)cc(C(F)(F)F)c12,"inconclusive [inhibitor, single point]"
23,CC1CCCC(C)N1/N=C/c1ccc(C(=O)O)cc1 (configuration not stated),inactive
24,COc1ccc(C)cc1C(=O)CCC(=O)Nc1ccccc1N1CCOCC1,"inconclusive [inhibitor, partial curve]"

row,SMILES,Potency
1,CCc1nc2ccccc2n1CCc1ccccc1,inactive
2,N#Cc1c(N2CCCC2)nc(N)c2c(N)nc(N3CCCC3)cc12,"inconclusive [inhibitor, partial curve]"
3,COc1ccc(OC)c(S(=O)(=O)Nc2cccc3ccccc23)c1,inactive
4,CCC(Sc1nc(C)cc(=O)[nH]1)C(=O)Nc1nc(-c2ccccc2)cs1 (configuration not stated),"inconclusive [inhibitor, single point]"
5,COc1ccc(CN2CCN(Cc3ccc(C(F)(F)F)cc3)CC2)c(OC)c1,"inconclusive [inhibitor, single point]"
6,Cc1ccc(NC(=O)c2ccco2)c(NC(=O)c2ccccc2)c1,"inconclusive [inhibitor, partial curve]"
7,CCOc1ccc(Nc2nc(Cl)nc(N3CCN(c4ccc(OC)cc4)CC3)n2)cc1,"inconclusive [inhibitor, single point]"
8,COC(=O)c1ccc(/C=C(\C#N)c2ccccn2)cc1,inactive
9,O=C(COc1ccc2ccccc2c1Br)N1CCOCC1,inactive
10,CCn1c(SCC(=O)Nc2oc(-c3ccccc3)c(-c3ccccc3)c2C#N)nnc1-c1cc(OC)cc(OC)c1,"inconclusive [inhibitor, partial curve]"
11,Cc1nc2ccccc2n1-c1ccccc1,"inconclusive [inhibitor, single point]"
12,COc1ccc(Cc2nnc3n2N=C(c2cc4ccccc4o2)CS3)cc1OC,inactive
13,O=C(COc1ccc(Cc2ccccc2)cc1)c1ccc(F)cc1,inactive
14,CCC(C)C(NC(=O)c1ccccc1NC(=O)c1ccc(OC)cc1)C(=O)NCc1ccco1 (configuration not stated),"inconclusive [inhibitor, partial curve]"
15,COc1ccc(C(C(=O)NC2CCCC2)N(C(=O)c2ccco2)c2cc3c(cc2C(C)=O)OCO3)cc1 (configuration not stated),inactive
16,CC1C(=O)N(Cc2cccc(F)c2)c2ccccc2N1C(=O)c1ccccc1 (configuration not stated),"inconclusive [inhibitor, partial curve]"
17,CC(C)(CNC(=O)c1ccc(Br)o1)CNC(=O)c1ccc(Br)o1,"inconclusive [inhibitor, single point]"
18,COc1ccc(Cl)cc1N1C(=O)CC(Sc2ccccc2N)C1=O (configuration not stated),"inconclusive [inhibitor, partial curve]"
19,CCN(CC)S(=O)(=O)c1cccc(NC(=O)COc2ccc(F)cc2Br)c1,active: 11.2 µM
20,CCCc1cc(=O)[nH]c(SCC(=O)Nc2c(C)cccc2C)n1,"inconclusive [inhibitor, single point]"
21,CCOC(=O)Cc1csc(/N=C/c2c(O)n(-c3ccccc3C(F)(F)F)c(=O)c3ccccc23)n1,"inconclusive [inhibitor, partial curve]"
22,COc1ccc(N2CC(NS(=O)(=O)c3ccc4ccccc4c3)CC2=O)cc1 (configuration not stated),"inconclusive [inhibitor, single point]"
23,CC(=O)N1CCc2[nH]c3ccc(C)cc3c2C1,inactive
24,CCCCNC(=O)/C=C/c1ccc(OC)c(Br)c1,"inconclusive [inhibitor, partial curve]"
